The text below walks through data of the supplement of paper PMC9135407.

Several values for one entry are separate records, joined by “and”; a condition that tells them apart may be missing. Equal values may be shown once. Where a name gives a salt, the structure may show the parent alone. Among all 5,800 compounds or so, about 620 (11%) showed activity.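 Rule for the calls: active = score above a cut-off or among the top three wells of a plate; in these data no inactive exceeds 0.85.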 The list shows a part of the results, in another mix than the full data. Bounds are passed on as bounds.

The test concerns primary human hepatic stellate cells (donor 1). Description: scaled lipid accumulation score (0 = DMSO-like, 1 = nortriptyline-like); higher = stronger HSC inactivation (lipid re-accumulation), active = hit call of the paper. Particulars: 48 h.
Where [1] appears, read: library stock concentration: 3.33 mM.
[2] abbreviates: library stock concentration: 10 mM.
The mark [3] stands for this setting: library stock concentration: 1 mM.
[4] abbreviates: library stock concentration: 2 mM.

As for `CCN(CC)CCCCNc1ncc2cc(-c3cc(OC)cc(OC)c3)c(NC(=O)NC(C)(C)C)nc2n1`, the “scaled lipid accumulation score” value is active: 1.34 under setting [1] and active: 1.01 under setting [2]. `CC(C)ON(CC(=O)NO)S(=O)(=O)c1ccc(-c2ccccc2)cc1`: under setting [3], the “scaled lipid accumulation score” value was inactive: ≤ 0. On to `COc1cccc2c1[C@@H]1CN(CCCCn3c(=O)[nH]c4c(sc5ncc(-c6ccccc6)nc54)c3=O)C[C@@H]1CO2.Cl` [Fiduxosin hydrochloride], for which, under setting [2], the “scaled lipid accumulation score” value is active: 0.863. Regarding `Cc1[nH]c(/C=C2/C(=O)Nc3ccc(S(=O)(=O)N(C)c4cccc(Cl)c4)cc32)c(C)c1C(=O)N1CCN(C)CC1`, the “scaled lipid accumulation score” value reads like this: under setting [4], active: 0.927; under setting [2], active: 1.14. Consider `CC(CNC1CCCCC1)OC(=O)c1ccccc1` (stereo not given) [Hexylcaine hydrochloride], for which the “scaled lipid accumulation score” value is inactive: ≤ 0.

As for `Nc1ccc(S(=O)(=O)Nc2nccs2)cc1` [Sulfathiazole], the “scaled lipid accumulation score” value was inactive: ≤ 0. Also, the “scaled lipid accumulation score” value under setting [1] was inactive: ≤ 0. Moreover, the “scaled lipid accumulation score” value (library stock concentration: 7.8 mM) was inactive: ≤ 0. For the same compound, the “scaled lipid accumulation score” value under setting [2] is inactive: 0.008 and inactive: 0.022. As for `O=C(O)c1cccc(-c2noc(-c3ccccc3F)n2)c1` [Ataluren (PTC124)], the “scaled lipid accumulation score” value by setting is: under setting [1], inactive: ≤ 0; under setting [2], inactive: ≤ 0. On to `Cc1ccc(NC(=O)CCCCCC(=O)Nc2ccccc2N)cc1` [Pimelic Diphenylamide 106], for which the “scaled lipid accumulation score” value under setting [3] was inactive: ≤ 0. As to `O=C1C(Cl)=C(N2CCOCC2)C(=O)N1c1ccc(Cl)c(Cl)c1`, the “scaled lipid accumulation score” value runs as follows: under setting [1], inactive: ≤ -0.009; under setting [2], inactive: ≤ 0.

Regarding `CCN(CC)CCCCCCCCOC(=O)c1cc(OC)c(OC)c(OC)c1`, the “scaled lipid accumulation score” value (library stock concentration: 12.6 mM) was active: 1.02. `Cc1ccc(-c2cc(C(F)(F)F)nn2-c2ccc(S(N)(=O)=O)cc2)cc1` [Celecoxib]: the “scaled lipid accumulation score” value under setting [1] is inactive: ≤ 0; the “scaled lipid accumulation score” value (library stock concentration: 5.2 mM) is inactive: 0.389 and inactive: ≤ 0.

As to `CC(C)[N+]1(C)[C@@H]2CC[C@H]1C[C@@H](OC(=O)C(CO)c1ccccc1)C2` (stereo not given in full) [Ipratropium Bromide], the “scaled lipid accumulation score” value by setting is: under setting [1], inactive: ≤ 0; under setting [2], inactive: ≤ 0 and inactive: 0.061. `CC(C)[N+]1(C)[C@@H]2CC[C@H]1C[C@@H](OC(=O)C(CO)c1ccccc1)C2` (stereo not given in full) [Ipratropium bromide]: the “scaled lipid accumulation score” value was inactive: ≤ 0. Further, the “scaled lipid accumulation score” value (library stock concentration: 4.9 mM) was inactive: 0.021. The “scaled lipid accumulation score” value under setting [2] is inactive: ≤ 0 and inactive: ≤ -0.07. For `O=C(O)C1=C(CSc2nnnn2CS(=O)(=O)O)CS[C@@H]2[C@H](NC(=O)[C@H](O)c3ccccc3)C(=O)N12` [Cefonicid sodium], the “scaled lipid accumulation score” value (library stock concentration: 3.5 mM) is inactive: ≤ 0. Take `CCNC(=O)c1noc(-c2cc(C(C)C)c(O)cc2O)c1-c1ccc(CN2CCOCC2)cc1`: under setting [1], the “scaled lipid accumulation score” value was active: 0.91. Take `CCOC(=O)[C@@H](C)Oc1cccc2c(=O)n(CC(=O)Nc3ccc4c(c3)OCCO4)ccc12`: under setting [2], the “scaled lipid accumulation score” value is inactive: 0.249. In the case of `CCOC1O[C@H]([C@@H](COCc2ccccc2)OCc2ccccc2)[C@H](OCc2ccccc2)[C@H]1O` (stereo not given in full) [Tribenoside], the “scaled lipid accumulation score” value was inactive: ≤ 0. As for `C=C[C@]1(C)C[C@@H](OC(=O)CSC(C)(C)CNC(=O)[C@H](N)C(C)C)[C@]2(C)[C@H](C)CC[C@]3(CCC(=O)[C@H]32)[C@@H](C)[C@@H]1O` [Valnemulin HCl], the “scaled lipid accumulation score” value under setting [1] is inactive: ≤ 0 and the “scaled lipid accumulation score” value under setting [2] was inactive: 0.491. As for `Cc1c(-c2ccc(O)cc2)n(Cc2ccc(OCCN3CCCCCC3)cc2)c2ccc(O)cc12` [Bazedoxifene HCl], the “scaled lipid accumulation score” value is inactive: 0.681 under setting [1] and inactive: 0.477 under setting [2]. As for `CC(=O)Nc1c(I)c(C(=O)N[C@H]2C(O)O[C@H](CO)[C@@H](O)[C@@H]2O)c(I)c(N(C)C(C)=O)c1I` (stereo not given in full) [Metrizamide], the “scaled lipid accumulation score” value was inactive: 0.054. In the case of `NC[C@H](O)c1ccc(O)c(O)c1` [Norepinephrine], the “scaled lipid accumulation score” value by setting is: under setting [2], inactive: ≤ 0; (library stock concentration: 11.8 mM) inactive: 0.008. Regarding `NC[C@H](O)c1ccc(O)c(O)c1` [Noradrenaline bitartrate monohydrate], the “scaled lipid accumulation score” value under setting [1] was inactive: 0.001 and the “scaled lipid accumulation score” value under setting [2] is inactive: ≤ 0.

As to `CCN(CC)CCNC(=O)c1ccc(N)cc1` [Procainamide HCl], the “scaled lipid accumulation score” value by setting is: under setting [1], inactive: ≤ 0; under setting [2], inactive: ≤ -0.001.

Regarding `CCN(CC)CCNC(=O)c1ccc(N)cc1` [Procainamide hydrochloride], the “scaled lipid accumulation score” value was inactive: 0.054. The “scaled lipid accumulation score” value under setting [2] is inactive: ≤ 0. For `CCN(CC)CCNC(=O)c1ccc(N)cc1` [Pronestyl], under setting [2], the “scaled lipid accumulation score” value was inactive: ≤ 0.

On to `c1ccc2c(c1)CC(N1CCN(c3cccc4c3OCCO4)CC1)C2`, for which the “scaled lipid accumulation score” value under setting [2] was inactive: 0.056.

For `CC(=O)c1cc2ccccc2oc1=O` [3-Acetylcoumarin], the “scaled lipid accumulation score” value is inactive: ≤ 0. For the compound `CC[C@H](CO)Nc1nc(Nc2cccc(-c3ccccn3)c2)c2ncn(C(C)C)c2n1` [(R)-DRF053 dihydrochloride], under setting [2], the “scaled lipid accumulation score” value is inactive: 0.134. `CCCCCCOc1ccccc1C(N)=O` [Exalamide]: the “scaled lipid accumulation score” value under setting [2] is inactive: ≤ -0.027. For `Cc1nccn1CC1CCc2c(c3ccccc3n2C)C1=O` (stereo not given) [Ondansetron], the “scaled lipid accumulation score” value (library stock concentration: 6.8 mM) is inactive: ≤ 0 and the “scaled lipid accumulation score” value under setting [2] is inactive: 0.202. Consider `Cc1nccn1CC1CCc2c(c3ccccc3n2C)C1=O` (stereo not given), for which, under setting [2], the “scaled lipid accumulation score” value is inactive: ≤ 0. For `Cc1nccn1CC1CCc2c(c3ccccc3n2C)C1=O` (stereo not given) [Ondansetron Hydrochloride], the “scaled lipid accumulation score” value is inactive: ≤ 0. Regarding `Cc1nccn1CC1CCc2c(c3ccccc3n2C)C1=O` (stereo not given) [Ondansetron HCl], the “scaled lipid accumulation score” value is inactive: ≤ 0 under setting [1] and inactive: ≤ 0 under setting [2]. With `NC(=O)c1cc[n+](CC2=C(C(=O)[O-])N3C(=O)[C@@H](NC(=O)Cc4cccs4)[C@H]3SC2)cc1` [Cefalonium], the “scaled lipid accumulation score” value is inactive: ≤ 0. Consider `O=C1C(O)=C(O)C(=O)C(O)=C1O` [Tetroquinone], for which the “scaled lipid accumulation score” value under setting [2] is inactive: 0.14 and the “scaled lipid accumulation score” value (library stock concentration: 11.6 mM) was inactive: ≤ 0. `O=C1C(O)=C(O)C(=O)C(O)=C1O` [Tetrahydroxy-1,4-quinone monohydrate]: the “scaled lipid accumulation score” value was inactive: ≤ 0.

For `O=c1c2ccccc2[nH]c(=S)n1CCN1CCC(=C(c2ccc(F)cc2)c2ccc(F)cc2)CC1`, the “scaled lipid accumulation score” value is inactive: ≤ -0.001 (library stock concentration: 80 uM), inactive: ≤ -0.001 (library stock concentration: 400 uM), inactive: ≤ -0.001 under setting [4] and inactive: ≤ -0.001 under setting [2].

Turning to `O=c1c2ccccc2[nH]c(=S)n1CCN1CCC(=C(c2ccc(F)cc2)c2ccc(F)cc2)CC1` [Diacylglycerol Kinase Inhibitor II], the “scaled lipid accumulation score” value under setting [1] was inactive: 0.024 and the “scaled lipid accumulation score” value under setting [2] is inactive: 0.091. Take `CC(=O)NC[C@H]1CN(c2ccc(N3CCOCC3)c(F)c2)C(=O)O1`: the “scaled lipid accumulation score” value under setting [2] is inactive: ≤ 0. Consider `CC(=O)NC[C@H]1CN(c2ccc(N3CCOCC3)c(F)c2)C(=O)O1` [Linezolid], for which the “scaled lipid accumulation score” value under setting [1] is inactive: ≤ 0; the “scaled lipid accumulation score” value (library stock concentration: 5.9 mM) is inactive: ≤ -0.006; the “scaled lipid accumulation score” value under setting [2] is inactive: ≤ 0 and inactive: 0.023. Consider `O=C(NCCCNc1nc(Nc2cccc(NC(=O)N3CCCC3)c2)ncc1I)c1cccs1`, for which the “scaled lipid accumulation score” value under setting [2] is active: 1.07. Consider `Cc1c2oc3c(C)ccc(C(=O)N[C@@H]4C(=O)N[C@H](C(C)C)C(=O)N5CCC[C@H]5C(=O)N(C)CC(=O)N(C)[C@@H](C(C)C)C(=O)O[C@@H]4C)c3nc-2c(C(=O)N[C@@H]2C(=O)N[C@H](C(C)C)C(=O)N3CCC[C@H]3C(=O)N(C)CC(=O)N(C)[C@@H](C(C)C)C(=O)O[C@@H]2C)c(N)c1=O` [Dactinomycin], for which the “scaled lipid accumulation score” value by setting is: (library stock concentration: 1.6 mM) inactive: 0.047; under setting [2], inactive: ≤ 0.

On to `Cc1c2oc3c(C)ccc(C(=O)N[C@@H]4C(=O)N[C@H](C(C)C)C(=O)N5CCC[C@H]5C(=O)N(C)CC(=O)N(C)[C@@H](C(C)C)C(=O)O[C@@H]4C)c3nc-2c(C(=O)N[C@@H]2C(=O)N[C@H](C(C)C)C(=O)N3CCC[C@H]3C(=O)N(C)CC(=O)N(C)[C@@H](C(C)C)C(=O)O[C@@H]2C)c(N)c1=O` [Actinomycin D], for which the “scaled lipid accumulation score” value was inactive: ≤ -0.021. On to `Cc1c2oc3c(C)ccc(C(=O)N[C@@H]4C(=O)N[C@H](C(C)C)C(=O)N5CCC[C@H]5C(=O)N(C)CC(=O)N(C)[C@@H](C(C)C)C(=O)O[C@@H]4C)c3nc-2c(C(=O)N[C@@H]2C(=O)N[C@H](C(C)C)C(=O)N3CCC[C@H]3C(=O)N(C)CC(=O)N(C)[C@@H](C(C)C)C(=O)O[C@@H]2C)c(N)c1=O`, for which, under setting [2], the “scaled lipid accumulation score” value was inactive: ≤ 0. In the case of `CCSC(N)=Nc1ccc(C(F)(F)F)cc1`, under setting [3], the “scaled lipid accumulation score” value was inactive: 0.01. With `COc1ccc2c(c1)c(CC(=O)OCC(=O)O)c(C)n2C(=O)c1ccc(Cl)cc1` [Acemetacin], the “scaled lipid accumulation score” value was inactive: ≤ 0. Moreover, the “scaled lipid accumulation score” value under setting [1] was inactive: ≤ 0. Also, under “library stock concentration: 4.8 mM”, the “scaled lipid accumulation score” value was inactive: ≤ 0. Further, the “scaled lipid accumulation score” value under setting [2] was inactive: ≤ 0 and inactive: 0.005. For `COc1ccc2cc3[n+](cc2c1OC)CCc1cc2c(cc1-3)OCO2` [Berberine chloride], the “scaled lipid accumulation score” value was inactive: ≤ 0. Further, under setting [2], the “scaled lipid accumulation score” value was inactive: ≤ 0. With `COc1ccc2cc3[n+](cc2c1OC)CCc1cc2c(cc1-3)OCO2` [Berberine HCl], the “scaled lipid accumulation score” value runs as follows: under setting [1], inactive: ≤ 0; under setting [2], inactive: ≤ 0. Take `CCCCCCCCCCCCCCCCOC[C@H](COP(=O)([O-])OCC[N+](C)(C)C)OC(=O)CCC` [Butanoyl PAF]: the “scaled lipid accumulation score” value under setting [3] was inactive: ≤ 0.

As for `CC[C@@H]1Cc2cc(O)ccc2C2=C1c1ccc(O)cc1C[C@H]2CC` [(R,R)-cis-Diethyl tetrahydro-2,8-chrysenediol], the “scaled lipid accumulation score” value under setting [2] is inactive: ≤ -0.07. Still for that read-out and setting: the figure for `Nc1ncnc2c1ncn2[C@@H]1O[C@H](CO)C[C@H]1O` [Cordycepin] is inactive: 0.004. For the compound `Cn1sc(=O)n(Cc2ccccc2)c1=O` [GSK-3b Inhibitor I], the “scaled lipid accumulation score” value under setting [1] is inactive: ≤ 0. Regarding `CNCCCC12CCC(c3ccccc31)c1ccccc12.Cl` [Maprotiline hydrochloride], the “scaled lipid accumulation score” value under setting [2] was active: 1.59. `CC(C)Cn1c(=O)n(C)c(=O)c2nc[nH]c21` [Isobutylmethylxanthine]: the “scaled lipid accumulation score” value (library stock concentration: 9 mM) was inactive: ≤ 0.

Take `Cc1cccc(C)c1NC(=O)C[N+](C)(C)C`: the “scaled lipid accumulation score” value under setting [2] is inactive: 0.024.

Take `Cc1nc2ccc(-n3ncc(C(=O)c4cc5ccccc5[nH]4)c3N)cc2[nH]1`: under setting [2], the “scaled lipid accumulation score” value is active: 0.907. With `CC(C)(C)NCC(O)COc1cccc2c1CC(O)C(O)C2` (stereo not given) [Nadolol], the “scaled lipid accumulation score” value was inactive: ≤ 0. Under setting [2], the “scaled lipid accumulation score” value was inactive: 0.071.
